According to the supplement of paper PMC4967469:
IC50 is the fitted dose that halves viability relative to control wells, and lower means more sensitive; a fit beyond the top or the lowest dose is shown as a bound at that dose. AUC, from the same fit, is the share of area under the viability curve across the 256-fold dose range; the more sensitive the line, the further below 1. For part of these data: A top dose marked as inferred was calculated from the reported fits. For part of these data: An entry number marks a drug with two screens in the source, which often give different values.

Legend:
Test in all cases: Viability of human cancer cell lines after 72 h of drug (GDSC screen)
[1] = compound: CC(=O)O[C@@]12CO[C@@H]1C[C@H](O)[C@@]1(C)C(=O)[C@H](O)C3=C(C)[C@@H](OC(=O)[C@H](O)[C@@H](NC(=O)OC(C)(C)C)c4ccccc4)C[C@@](O)([C@@H](OC(=O)c4ccccc4)[C@H]21)C3(C)C [Docetaxel]; conditions: top dose 0.0125 µM
Experimental: (§1)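 Human cancer cell lines in 384-well plates, medium with 10% serum, drug for 72 h over a 256-fold dose range (nine 2-fold or five 4-fold steps up to the top dose). Adherent lines were fixed and stained with the nucleic acid dye Syto60, suspension lines read with resazurin; signal relative to control wells, capped at 0 and 100%. One two-parameter sigmoid per drug and line, fitted in a mixed model over all curves with the slope shared within a line.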

[2] = compound: CC1(C)CNc2cc(NC(=O)c3cccnc3NCc3ccncc3)ccc21 [AMG-706]; conditions: top dose 2 µM; top dose inferred
Experimental: as §1

[3] = compound: CCOc1nc(NC(=O)Cc2cc(OC)ccc2OC)cc(N)c1C#N [JNK Inhibitor VIII]; conditions: top dose 10 µM; top dose inferred
Experimental: as §1

[4] = compound: CN1CCN(c2ccc([N+](=O)[O-])c3no[n+]([O-])c23)CC1 [NSC-207895]; conditions: top dose 20 µM; top dose inferred
Experimental: as §1

[5] = compound: COC(=O)[C@H](CCSC)NC(=O)c1ccc(NC[C@@H](N)CS)cc1-c1ccccc1 [FTI-277]; conditions: top dose 1.024 µM; top dose inferred
Experimental: as §1

[6] = compound: COCC[n+]1c2c(n(Cc3cnccn3)c1C)C(=O)c1ccccc1C2=O [YM155]; conditions: top dose 5.12 µM
Experimental: as §1

[7] = compound: C[C@]1(O)C[C@@H](c2nc(-c3ccc4ccc(-c5ccccc5)nc4c3)c3c(N)nccn32)C1 [OSI-906]; conditions: top dose 2.56 µM; top dose inferred
Experimental: as §1

[8] = compound: Cc1ccc(C(=O)N(CCCN)[C@@H](c2nc3cc(Cl)ccc3c(=O)n2Cc2ccccc2)C(C)C)cc1 [SB-715992]; conditions: top dose 0.128 µM; top dose inferred
Experimental: as §1

[9] = compound: Cc1sc2c(c1C)C(c1ccc(Cl)cc1)=N[C@@H](CC(=O)OC(C)(C)C)c1nnc(C)n1-2 [JQ1]
Experimental: as §1

[10] = compound: O=C(/C=C/c1cccc(S(=O)(=O)Nc2ccccc2)c1)NO [Belinostat]; conditions: top dose 20 µM; top dose inferred
Experimental: as §1

[11] = compound: c1ccc2c(CCNc3ccc(Nc4ccncc4)cc3)c[nH]c2c1 [JNJ-26854165]; conditions: top dose 10 µM
Experimental: as §1

[12] = top dose 1 µM, screen: GDSC drug entry 1218, top dose inferred
[13] = top dose 2.56 µM, screen: GDSC drug entry 163

Cell Line	AUC [1]	IC50 [1] [µM]	AUC [2]	IC50 [2] [µM]	AUC [3]	IC50 [3] [µM]	AUC [4]	IC50 [4] [µM]	AUC [5]	IC50 [5] [µM]	AUC [6]	IC50 [6] [µM]	AUC [7]	IC50 [7] [µM]	AUC [8]	IC50 [8] [µM]	AUC [9, 12]	IC50 [9, 12] [µM]	AUC [9, 13]	IC50 [9, 13] [µM]	AUC [10]	IC50 [10] [µM]	AUC [11]	IC50 [11] [µM]
H2595 (mesothelioma, adherent)	0.769	0.00664	0.917	> 2	0.912	> 10	0.804	15.1	0.968	> 1.02	0.048	< 0.02	0.956	> 2.56	0.826	0.123	0.963	> 1	0.761	1.26	0.457	0.912	0.914	> 10
HT-115 (large intestine, adherent)	0.928	> 0.0125	0.983	> 2	0.987	> 10	0.991	> 20	0.974	> 1.02	0.978	> 5.12	0.991	> 2.56	0.989	> 0.128	0.991	> 1	0.867	1.97	0.431	0.825	0.958	> 10
PCI-15A (head and neck, adherent)	0.862	0.0109	0.911	> 2	0.785	4.33	0.985	> 20	0.987	> 1.02	0.986	> 5.12	0.93	> 2.56	0.837	0.087	0.982	> 1	0.887	> 2.56	0.984	> 20	0.791	4.55
SK-N-SH (neuroblastoma, adherent)	0.956	> 0.0125	0.922	> 2	0.957	> 10	0.913	> 20	0.965	> 1.02	0.901	> 5.12	0.569	0.246	0.91	> 0.128	0.986	> 1	0.646	0.405	0.308	0.364	0.883	> 10
RCM-1 (large intestine, adherent)	0.837	0.0111	0.985	> 2	0.985	> 10	0.984	> 20	0.962	> 1.02	0.674	1.09	0.982	> 2.56	0.973	> 0.128	0.96	> 1	0.816	1.83	0.5	1.25	0.91	> 10
KP-3 (pancreas, adherent)	0.881	> 0.0125	0.924	> 2	0.909	> 10	0.946	> 20	0.979	> 1.02	0.313	0.0857	0.859	> 2.56	0.752	0.0498	0.942	> 1	0.821	1.87	0.58	2.16	0.942	> 10
